Measured values as given in the supplement of paper PMC11741623.
This is one part of the list. Interaction screen of human proteins with wild-type SARS-CoV-2 proteins by split-DHFR complementation in yeast, 1 µg/mL methotrexate. Value = fitness of the pair (three or more lineages) minus that of the viral protein without a human partner, on a scale set by negative (0) and fused positive (1) controls, mean of up to three cultures; higher = more likely to interact. Active = false discovery rate below 0.05 (one-sided t-test) in at least one culture. Nearly all pairs are not hits, and differences among them are mostly noise (correlation between cultures about 0.3); most hits were seen in one culture only. Human sequences are the Swiss-Prot entries looked up by gene name; the clone may be another isoform. NSP2 values were corrected by the authors for a growth advantage. Listed are human proteins with a hit and a random twelfth of the others.

What was measured:
Assay in all cases: yeast fitness gain over the viral ORF with no human partner (scaled fitness); higher = more likely to interact
[1] = target: SARS-CoV-2 E
Procedure: (§1)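 Split mouse DHFR complementation in pooled diploid yeast: human ORFeome clones carry one fragment and viral ORFs the other; barcoded lineages compete in 1 µg/mL methotrexate and fitness is read by barcode sequencing in up to three cultures.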

[2] = target: SARS-CoV-2 M
Procedure: as §1

[3] = target: SARS-CoV-2 N
Procedure: as §1

[4] = target: SARS-CoV-2 NSP1
Procedure: as §1

[5] = target: SARS-CoV-2 NSP10
Procedure: as §1

[6] = target: SARS-CoV-2 NSP12
Procedure: as §1

[7] = target: SARS-CoV-2 NSP13
Procedure: as §1

[8] = target: SARS-CoV-2 NSP14
Procedure: as §1

[9] = target: SARS-CoV-2 NSP15
Procedure: as §1

[10] = target: SARS-CoV-2 NSP16
Procedure: as §1

[11] = target: SARS-CoV-2 NSP2
Procedure: as §1

[12] = target: SARS-CoV-2 NSP4
Procedure: as §1

[13] = target: SARS-CoV-2 NSP5
Procedure: as §1

[14] = target: SARS-CoV-2 NSP6
Procedure: as §1

[15] = target: SARS-CoV-2 NSP7
Procedure: as §1

[16] = target: SARS-CoV-2 NSP8
Procedure: as §1

[17] = target: SARS-CoV-2 NSP9
Procedure: as §1

[18] = target: SARS-CoV-2 ORF10
Procedure: as §1

[19] = target: SARS-CoV-2 ORF3A
Procedure: as §1

[20] = target: SARS-CoV-2 ORF3B
Procedure: as §1

[21] = target: SARS-CoV-2 ORF6
Procedure: as §1

[22] = target: SARS-CoV-2 ORF7A
Procedure: as §1

[23] = target: SARS-CoV-2 ORF7B
Procedure: as §1

[24] = target: SARS-CoV-2 ORF8
Procedure: as §1

[25] = target: SARS-CoV-2 ORF9B
Procedure: as §1

[26] = target: SARS-CoV-2 ORF9Bwu (the 73-codon ORF)
Procedure: as §1

[27] = target: SARS-CoV-2 S
Procedure: as §1

Measured: yeast fitness gain

B1: WBSCR28, Q6UE05 (protein)
chain: MEALPPVRSSLLGILLQVTRLSVLLVQNRDHLYNFLLLKINLFNHWVSGLAQEARGSCNWQAHLPLGAAACPLGQALWAGLALIQVPVWLVLQGPRLMWAGMWGSTKGLGLALLSAWEQLGLSVAIWTDLFLSCLHGLMLVALLLVVVTWRVCQKSHCFRLGRQLSKALQVNCVVRKLLVQLRRLYWWVETMTALTSWHLAYLITWTTCLASHLLQAAFEHTTQLAEAQEVEPQEVSGSSLLPSLSASSDSESGTVLPEQETPRE
inactive: [1] 0.031 | [2] 0.0495 | [3] -0.0126 | [4] 0.0352 | [5] 0.0264 | [6] 0.0332 | [7] -0.00244 | [8] -0.000888 | [9] 0.0133 | [10] -0.0105 | [11] -0.0617 | [12] 0.0896 | [13] 0.0105 | [14] 0.035 | [15] -0.0105 | [16] 0.0292 | [17] 0.0494 | [18] 0.0157 | [19] 0.0114 | [20] 0.0194 | [21] 0.0269 | [22] 0.0343 | [23] 0.0565 | [24] 0.0271 | [25] -0.0455 | [26] 0.0185 | [27] 0.0338

B2: FAM174A, Q8TBP5 (protein)
chain: MKASQCCCCLSHLLASVLLLLLLPELSGPLAVLLQAAEAAPGLGPPDPRPRTLPPLPPGPTPAQQPGRGLAEAAGPRGSEGGNGSNPVAGLETDDHGGKAGEGSVGGGLAVSPNPGDKPMTQRALTVLMVVSGAVLVYFVVRTVRMRRRNRKTRRYGVLDTNIENMELTPLEQDDEDDDNTLFDANHPRR
inactive: [1] -0.0255 | [2] 0.0297 | [3] 0.0937 | [4] 0.0209 | [5] -0.0219 | [6] 0.0351 | [7] -0.00381 | [8] 0.0164 | [9] -0.0271 | [10] -0.116 | [11] -0.109 | [12] 0.00336 | [13] 0.0464 | [14] 0.0575 | [15] 0.0474 | [16] 0.0711 | [17] -0.0504 | [18] 0.0297 | [19] -0.0377 | [20] 0.034 | [21] 0.0276 | [22] 0.0258 | [23] 0.0617 | [24] 0.0362 | [25] 0.0134 | [26] 0.079 | [27] 0.0721

B3: RDH12, Q96NR8 (protein)
chain: MLVTLGLLTSFFSFLYMVAPSIRKFFAGGVCRTNVQLPGKVVVITGANTGIGKETARELASRGARVYIACRDVLKGESAASEIRVDTKNSQVLVRKLDLSDTKSIRAFAEGFLAEEKQLHILINNAGVMMCPYSKTADGFETHLGVNHLGHFLLTYLLLERLKVSAPARVVNVSSVAHHIGKIPFHDLQSEKRYSRGFAYCHSKLANVLFTRELAKRLQGTGVTTYAVHPGVVRSELVRHSSLLCLLWRLFSPFVKTAREGAQTSLHCALAEGLEPLSGKYFSDCKRTWVSPRARNNKTAERLWNVSCELLGIRWE
active: [23] 0.1
inactive: [1] 0.0323 | [2] 0.0203 | [3] 0.0598 | [4] 0.0381 | [5] 0.0379 | [6] -0.0245 | [7] 0.0122 | [8] -0.3 | [9] 0.0306 | [10] -0.0734 | [11] -0.124 | [12] -0.0315 | [13] 0.016 | [14] 0.0377 | [15] 0.0192 | [16] 0.0445 | [17] 0.076 | [18] 0.0262 | [19] -0.036 | [20] 0.0432 | [21] 0.0276 | [22] 0.0705 | [24] -0.0257 | [25] 0.00221 | [26] 0.0573 | [27] 0.00913

B4: HSFY1, Q96LI6 (protein)
chain: MAHVSSETQDVSPKDELTASEASTRSPLCEHTFPGDSDLRSMIEEHAFQVLSQGSLLESPSYTVCVSEPDKDDDFLSLNFPRKLWKIVESDQFKSISWDENGTCIVINEELFKKEILETKAPYRIFQTDAIKSFVRQLNLYGFSKIQQNFQRSAFLATFLSEEKESSVLSKLKFYYNPNFKRGYPQLLVRVKRRIGVKNASPISTLFNEDFNKKHFRAGANMENHNSALAAEASEESLFSASKNLNMPLTRESSVRQIIANSSVPIRSGFPPPSPSTSVGPSEQIATDQHAILNQLTTIHMHSHSTYMQARGHIVNFITTTTSQYHIISPLQNGYFGLTVEPSAVPTRYPLVSVNEAPYRNMLPAGNPWLQMPTIADRSAAPHSRLALQPSPLDKYHPNYN
inactive: [1] -0.0146 | [17] 0.00544 | [19] 0.0316

B5: PTRHD1, Q6GMV3 (protein)
chain: MHRGVGPAFRVVRKMAASGAEPQVLVQYLVLRKDLSQAPFSWPAGALVAQACHAATAALHTHRDHPHTAAYLQELGRMRKVVLEAPDETTLKELAETLQQKNIDHMLWLEQPENIATCIALRPYPKEEVGQYLKKFRLFK
inactive: [1] 0.0646 | [2] -0.0139 | [3] 0.094 | [4] 0.0195 | [5] 0.00376 | [6] 0.0196 | [7] 0.0591 | [8] 0.115 | [9] 0.0341 | [10] 0.0365 | [11] -0.0753 | [12] 0.0523 | [13] 0.0379 | [14] -0.0101 | [15] -0.0258 | [16] -0.00145 | [17] 0.0387 | [18] 0.0688 | [19] -0.0841 | [20] 0.00585 | [21] 0.00763 | [22] 0.0462 | [23] 0.0145 | [24] -0.0121 | [25] 0.0157 | [26] -0.00611 | [27] -0.0448

B6: SHANK2-AS3, Q9BTD1 (protein)
chain: MAQLPSAQMPAPRTQPDLILVHPVLALSGRAPSILCSVPWDACELLATAMWWKTRILWGVFLISRTRPPAPMQILILTLDPSEGEVCCKKRKPGQTGRNRVRMTTATCKPGGEASGETSPGTP
inactive: [1] 0.0765 | [2] 0.0466 | [3] 0.0417 | [4] 0.0289 | [5] 0.0166 | [6] -0.0243 | [7] -0.0164 | [8] 0.0296 | [9] -0.0322 | [10] -0.00314 | [11] -0.102 | [12] 0.111 | [13] 0.0325 | [14] 0.0173 | [15] 0.00929 | [16] -0.0127 | [17] -0.0442 | [18] 0.0483 | [19] 0.0997 | [20] 0.0358 | [21] 0.0305 | [22] 0.0152 | [23] -0.0553 | [24] -0.0312 | [25] 0.0537 | [26] 0.032 | [27] -0.0181

B7: PCOLCE2, Q9UKZ9 (protein)
chain: MRGANAWAPLCLLLAAATQLSRQQSPERPVFTCGGILTGESGFIGSEGFPGVYPPNSKCTWKITVPEGKVVVLNFRFIDLESDNLCRYDFVDVYNGHANGQRIGRFCGTFRPGALVSSGNKMMVQMISDANTAGNGFMAMFSAAEPNERGDQYCGGLLDRPSGSFKTPNWPDRDYPAGVTCVWHIVAPKNQLIELKFEKFDVERDNYCRYDYVAVFNGGEVNDARRIGKYCGDSPPAPIVSERNELLIQFLSDLSLTADGFIGHYIFRPKKLPTTTEQPVTTTFPVTTGLKPTVALCQQKCRRTGTLEGNYCSSDFVLAGTVITTITRDGSLHATVSIINIYKEGNLAIQQAGKNMSARLTVVCKQCPLLRRGLNYIIMGQVGEDGRGKIMPNSFIMMFKTKNQKLLDALKNKQC
inactive: [1] 0.118 | [2] -0.0314 | [4] 0.0118 | [5] 0.0157 | [6] 0.039 | [7] 0.0121 | [8] -0.231 | [10] -0.096 | [11] -0.132 | [12] 0.107 | [13] -0.0431 | [14] -0.00213 | [15] 0.0528 | [16] 0.0216 | [17] 0.0755 | [18] -0.0448 | [19] 0.00654 | [20] 0.0251 | [21] -0.0195 | [22] -0.175 | [23] 0.0609 | [24] 0.0101 | [25] -0.0768 | [26] -0.0141 | [27] 0.0868

B8: IRF5, Q13568 (protein)
chain: MNQSIPVAPTPPRRVRLKPWLVAQVNSCQYPGLQWVNGEKKLFCIPWRHATRHGPSQDGDNTIFKAWAKETGKYTEGVDEADPAKWKANLRCALNKSRDFRLIYDGPRDMPPQPYKIYEVCSNGPAPTDSQPPEDYSFGAGEEEEEEEELQRMLPSLSLTEDVKWPPTLQPPTLRPPTLQPPTLQPPVVLGPPAPDPSPLAPPPGNPAGFRELLSEVLEPGPLPASLPPAGEQLLPDLLISPHMLPLTDLEIKFQYRGRPPRALTISNPHGCRLFYSQLEATQEQVELFGPISLEQVRFPSPEDIPSDKQRFYTNQLLDVLDRGLILQLQGQDLYAIRLCQCKVFWSGPCASAHDSCPNPIQREVKTKLFSLEHFLNELILFQKGQTNTPPPFEIFFCFGEEWPDRKPREKKLITVQVVPVAARLLLEMFSGELSWSADSIRLQISNPDLKDRMVEQFKELHHIWQSQQRLQPVAQAPPGAGLGVGQGPWPMHPAGMQ
inactive: [1] 0.0135 | [2] -0.0577 | [3] 0.129 | [4] -0.0271 | [5] -0.0105 | [6] 0.111 | [7] -0.0136 | [9] 0.0132 | [10] -0.0489 | [11] -0.0786 | [13] 0.00965 | [14] -0.0869 | [15] 0.0382 | [16] 0.0803 | [17] 0.0175 | [18] 0.0113 | [19] -0.112 | [20] -0.0273 | [21] -0.0649 | [22] -0.101 | [23] 0.0356 | [24] 0.0227 | [25] 0.00882 | [26] -0.00747 | [27] -0.0758
